# Laboratory results reported in PubChem BioAssay AID720709 (National Center for Advancing Translational Sciences (NCATS), 2013).
# Screen size: about 360,000 compounds; about 520 (0.14%) were called active. The shares of active, inactive and inconclusive entries below differ from those in the screen. The call rests on the fitted dose curve; in most records, active means well fitted inhibition curve with a large enough effect; inconclusive means small, poorly fitted or top-dose-only effect; inactive means no such curve, though single readings can be large or run the other way. Potencies of inconclusive entries are left out as doubtful fits.
# Molecular target: Rap guanine nucleotide exchange factor 3 (Homo sapiens) (UniProt O95398)
# Experiment: qHTS for Antagonist of cAMP-regulated guanine nucleotide exchange factor 3 (EPAC1): primary screen; further: nearly all actives have a fitted effect of over 50% in size;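 on activity change, negative = inhibition: plate controls were vehicle for no effect and positive control for full effect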
# Conditions: EPAC1 GEF assay, Rap1b-BODIPY-GDP exchange fluorescence; activity change, negative = inhibition: at 115 µM (top of the series)
# Potency means the concentration at half of the fitted maximal effect; tags describe the fitted curve by direction and shape.
# Chain of UniProt O95398 (O95398 whole entry, looked up): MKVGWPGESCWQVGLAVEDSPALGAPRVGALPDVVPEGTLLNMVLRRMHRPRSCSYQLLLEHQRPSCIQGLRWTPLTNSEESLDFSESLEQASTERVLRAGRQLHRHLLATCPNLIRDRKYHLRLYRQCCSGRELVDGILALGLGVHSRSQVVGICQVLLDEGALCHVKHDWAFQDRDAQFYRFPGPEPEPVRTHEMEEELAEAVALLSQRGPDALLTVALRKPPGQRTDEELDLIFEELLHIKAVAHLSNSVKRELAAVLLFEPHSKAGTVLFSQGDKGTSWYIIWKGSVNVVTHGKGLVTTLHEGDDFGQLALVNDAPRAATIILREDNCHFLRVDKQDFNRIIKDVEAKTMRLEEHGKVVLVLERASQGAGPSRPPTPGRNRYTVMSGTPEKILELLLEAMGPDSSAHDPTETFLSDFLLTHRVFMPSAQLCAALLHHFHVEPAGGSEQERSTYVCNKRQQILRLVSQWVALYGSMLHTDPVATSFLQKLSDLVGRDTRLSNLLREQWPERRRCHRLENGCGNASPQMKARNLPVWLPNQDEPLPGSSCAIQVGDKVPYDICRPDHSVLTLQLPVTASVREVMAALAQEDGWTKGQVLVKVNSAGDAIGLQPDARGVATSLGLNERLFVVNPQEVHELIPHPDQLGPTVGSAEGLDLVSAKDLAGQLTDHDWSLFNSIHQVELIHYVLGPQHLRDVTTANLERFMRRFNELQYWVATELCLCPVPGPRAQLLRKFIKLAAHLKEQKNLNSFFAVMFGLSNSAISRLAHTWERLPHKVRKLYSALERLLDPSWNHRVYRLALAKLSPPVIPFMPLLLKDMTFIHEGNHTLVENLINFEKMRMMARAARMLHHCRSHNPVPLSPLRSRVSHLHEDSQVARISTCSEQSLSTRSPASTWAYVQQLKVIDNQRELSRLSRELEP
Compound,"activity change, negative = inhibition",Potency
COc1ccc(NC(=S)N2CCc3ccccc3C2)cc1OC,inactive: 5.16%,
CCCNS(=O)(=O)c1ccc(OC)c(Cl)c1Cl,,"inconclusive [inhibitor, single point]"
CCC(C(=O)NC1CCCC1)N(C(=O)c1snc(C(N)=O)c1N)c1ccc(OC)c(OC)c1 (stereo unspecified),inactive: 4.19%,
NCCc1nnc(SCC(=O)Nc2cccc(Cl)c2)o1,,"inconclusive [inhibitor, single point]"
O=[N+]([O-])c1cccc(C2NCC(c3ccccc3Cl)c3c2[nH]c2ccccc32)c1 (stereo unspecified),,"inconclusive [inhibitor, single point]"
Cc1cc(C)nc(-n2nc(C)c(Br)c2Nc2ccc(Br)cc2)n1,inactive: 0.141%,
COc1cc(/C=C(\C#N)C(=O)c2ccc(O)c(O)c2)cc(I)c1O,,"inconclusive [inhibitor, full curve]"
Cc1ccc(/C(C#N)=C\c2ccc(N3CCOCC3)o2)cc1,inactive: -3.24%,
COc1ccc(Cn2c(N)c(S(=O)(=O)c3cccs3)c3nc4ccccc4nc32)cc1,,"inconclusive [inhibitor, full curve, poor fit]"
Cc1cc(C(=O)N/N=C/c2cccc(OC(=O)c3cccc(Br)c3)c2)n[nH]1,inactive: 12.7%,
Cc1nc2ccccc2c(=O)n1/N=C/c1ccccc1O,,active: 79.4 µM
O=C(Cn1cc(C(F)(F)F)ccc1=O)N1CCc2ccccc21,inactive: -7.65%,
N#Cc1c(N2CCCCC2)nc(N)c2c(N)nc(SCC(=O)O)cc12,,"inconclusive [inhibitor, single point]"
COc1ccc(C(C#N)CC(=O)c2ccc3c(c2)OCO3)cc1OC (stereo unspecified),,"inconclusive [inhibitor, single point]"
CC/C(C)=N\N=C\c1c(O)n(CC)c2cc(C3=NNC(=O)CC3)ccc12,inactive: -5.66%,
CC1(C)CC(N2CCCC2)=CC(=[N+]2CCCC2)C1,inactive: 7.4%,
COCCN(C(=O)CC(C)(C)C)c1nnc(-c2cccnc2)s1,,"inconclusive [inhibitor, partial curve]"
COc1ccccc1C1SCCN1S(C)(=O)=O (stereo unspecified),inactive: -1.59%,
CCCCCCC(=O)N1CCC(c2nc3c(nnn3Cc3ccccc3Cl)c(=O)[nH]2)CC1,,"inconclusive [inhibitor, full curve, poor fit]"
O=C(NCc1ccc(C(F)(F)F)cc1)C1CC(c2ccc(C(F)(F)F)cc2)=NO1 (stereo unspecified),,"inconclusive [inhibitor, partial curve]"
CCn1c(COc2ccccc2)nnc1SCC(=O)C(C)(C)C,,"inconclusive [inhibitor, single point]"
O=c1cc(N2CCCCC2)c(-c2ccccc2)nn1Cc1ccc(F)cc1,inactive: -13.9%,
Cc1nc2sc(C(c3ccccc3)N3CCN(CCO)CC3)c(O)n2n1 (stereo unspecified),,"inconclusive [inhibitor, single point]"
Cc1c(C(=O)NCc2nnc(-c3ccccc3)o2)oc2c(F)cccc12,inactive: -29.9%,

Compound,"activity change, negative = inhibition",Potency
CCCC(=O)N1CCCC1(C)C(=O)NCc1c(F)ccc(C)c1F (stereo unspecified),,"inconclusive [inhibitor, full curve, poor fit]"
COc1ccc(CCN(C)Cc2ccc(OCc3ccccc3)c(OC)c2)cc1OC,inactive: -8.05%,
COc1ccc(-c2cnnc(N/N=C/c3ccc(O)c(O)c3)n2)cc1,,"inconclusive [inhibitor, single point]"
COc1ccc(C(=O)CCN2CCCCCC2)cc1,inactive: 16.6%,
Cc1nc2ccccc2c(=O)n1/N=C/c1ccc2ccccc2c1O,,"inconclusive [inhibitor, single point]"
CCOC(=O)C1(CCCc2ccccc2)CCN(C(=O)C2CCCN(C(N)=O)C2)CC1 (stereo unspecified),inactive: -6.89%,
CCN1CCN(c2nc(S(=O)(=O)c3ccc(C)cc3)c(Cl)s2)CC1,,"inconclusive [inhibitor, single point]"
COCCCNC(=O)c1ccc(N(C)S(C)(=O)=O)cc1,inactive: -2.74%,
O=S(=O)(c1ccc2c(c1)OCCO2)N1CCN(Cc2ccc3c(c2)OCO3)CC1,,"inconclusive [inhibitor, single point]"
CCCn1cnc2cc(NCc3ccccn3)ccc21,inactive: -0.882%,
Cc1ccc(NC(=O)C2CCN(S(=O)(=O)c3ccccc3)CC2)cc1,inconclusive: -31.2% [inhibitor],
CC(=O)CCc1oc2ccc(C)cc2c1Cc1ccccc1,,"inconclusive [inhibitor, partial curve, poor fit]"
O=C(NCc1ccc(Cl)cc1)C(=O)NCC(c1ccco1)N1CCOCC1 (stereo unspecified),inactive: 15.2%,
COc1ccc(-c2csc(NC(=O)C3CC(=O)N(Cc4ccco4)C3)n2)cc1 (stereo unspecified),,"inconclusive [inhibitor, partial curve]"
CC(C)C[C@@H](COCc1cccc(Cl)c1)N1CCN(C(=O)c2ccc(C(F)(F)F)cc2)CCC1=O,,"inconclusive [inhibitor, single point]"
Cc1ccc(Nc2nnc(SCC(=O)Nc3cccnc3Cl)s2)cc1C,,"inconclusive [inhibitor, partial curve]"
CCc1cc2c(=O)oc(-c3ccccc3F)nc2s1,,"inconclusive [inhibitor, single point]"
O=c1oc2ccccc2cc1-c1ccccc1,,"inconclusive [inhibitor, partial curve]"
c1ccc(-c2nc(N3CCOCC3)c3ccccc3n2)nc1,inactive: -3.67%,
CN(C(=O)c1ccc2ccccc2c1)c1ccccn1,,"inconclusive [inhibitor, single point]"
CCCCCCn1c(=O)n2n(c1=O)C[C@]1(OC(=O)NC3CCCC3)CN(S(=O)(=O)c3ccc(C)cc3)C[C@]1(O)C2,,"inconclusive [inhibitor, single point]"
CC1(C(=O)NS(=O)(=O)c2ccc3c(c2)CCO3)CCN1C(=O)C1(c2ccc(Cl)cc2)CC1 (stereo unspecified),,"inconclusive [inhibitor, full curve]"
O=C(CCN1CCN(Cc2ccccc2)CC1)Nc1cccc(Br)c1,,"inconclusive [inhibitor, single point]"
C=CCNC(=O)CSc1nc2scc(-c3ccco3)c2c(=O)n1CC=C,,"inconclusive [inhibitor, full curve, poor fit]"

Compound,"activity change, negative = inhibition",Potency
CN=c1scc(-c2ccccc2F)n1/N=C/c1ccc(O)c(O)c1O,,"inconclusive [inhibitor, partial curve]"
Cc1ccccc1C(=O)N(C)[C@H]1C[C@H]2c3[nH]c4ccccc4c3CCN2C[C@H]1[C@H](C)O,inactive: 15.4%,
COc1ccc(OC)c(C2NC(=O)NC(C)=C2C(=O)OCc2ccccc2)c1 (stereo unspecified),,"inconclusive [inhibitor, single point]"
CN1CCN(CC(=O)Nc2cc(N3CCOCC3)ccc2[N+](=O)[O-])CC1,,"inconclusive [inhibitor, partial curve]"
Cc1c(C(=O)NNC(=O)c2ccccc2O)oc2ccc(Br)cc12,,"inconclusive [inhibitor, single point]"
COC(=O)C1=C(C)OC(N)=C(C#N)C1c1cc(OC)c(OCC(N)=O)cc1Cl (stereo unspecified),inactive: 4.3%,
O=C(/C=C/c1ccco1)NC(=S)Nc1cccc(-c2nc3ccccc3o2)c1,,"inconclusive [inhibitor, full curve]"
Cc1ccccc1NC(=O)Cc1nnc(N)s1,,"inconclusive [inhibitor, single point]"
O=C(O)c1cc(Cl)c2c(c1)[C@@H]1C=CC[C@@H]1[C@H](c1ccc(S(=O)(=O)N3CCOCC3)cc1)N2,,"inconclusive [inhibitor, partial curve, poor fit]"
Cc1cc(NC2C3CC4CC(C3)CC2C4)n2nnnc2n1 (stereo unspecified),inactive: 2.07%,
Cc1cc(N)ccc1N1CCCC1,inactive: -23.4%,
Cc1ccc(C)c(/C=C(\C(=O)O)c2ccc(S(=O)(=O)N3CCCCC3)s2)c1,,"inconclusive [inhibitor, partial curve]"
COc1ccc(NC(=O)CSc2nc(O)cc(=O)n2-c2ccc(OC)cc2)cc1,,"inconclusive [inhibitor, partial curve]"
COc1cccc(N2CCN(CC(=O)NC(=O)NCc3ccco3)CC2)c1,,"inconclusive [inhibitor, single point]"
Cc1oc2c(c(C)cc3oc(=O)c(CC(=O)N[C@@H](CC(C)C)C(=O)O)c(C)c32)c1C,,"inconclusive [inhibitor, full curve]"
CC[C@@H](C)[C@H](NC(=O)CNC(=O)Cc1c(C)c2c(cc(C)c3c(C)coc32)oc1=O)C(=O)O,,"inconclusive [inhibitor, full curve, poor fit]"
Cc1ccc(N=C2SC(C(=O)Nc3ccc(OC(F)(F)F)cc3)C(N)=C2C(=O)Nc2c(C)cc(C)cc2C)cc1 (stereo unspecified),,"inconclusive [inhibitor, full curve, poor fit]"
CC(=NNC(=O)c1ccncc1)c1ccccc1O,,"inconclusive [inhibitor, full curve]"
Cc1ccc(S(=O)(=O)N2[C@H](CC(=O)c3ccc(Cl)c(Cl)c3)OC[C@@H]2C(C)C)cc1,inactive: -8.58%,
N#Cc1nnn2c1nc(N)c1c(Cl)cccc12,inactive: 11.8%,
COc1ccc(/C=C/C(=O)Nc2cc(F)ccc2C)cc1S(=O)(=O)N1CCOCC1,,"inconclusive [inhibitor, partial curve]"
O=c1c2ccccc2ncn1Cc1ccc(Cl)cc1,inactive: -25.9%,
COc1ccc2oc(C(=O)N(C)CCOc3ccccc3)c(C)c2c1,inactive: 3.27%,
